Experimental data taken from the RNAGym collection of RNA variant scans (doi:10.1101/gad.245936.114).
This sample is rich in variants without activity.

B1: tRNA (parent)
chain: CUCUCGGUAGCCAAGUUGGUUUAAGGCGCAAGACUUUAAUUUAUCACUACGAAAUCUUGAGAUCGGGCGUUCGACUCGCCCCCGGGAGAUUUUUUCCUCGAGCAA

Variants of: B1
Assay: nonsense suppression (GFP-seq) (ratio to wild type); higher = more function; SUP4oc tRNA, yeast GFP reporter sort-seq
Outline: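 Yeast were grown in raffinose/galactose medium with 80 mg/L adenine, each strain bearing a genome-integrated ochre-suppressor tRNA variant from a ~3% random-mutation library, a galactose-driven GFP ochre reporter, and RFP. After sorting into GFP/RFP bins, every bin was sequenced on an Illumina platform at phred ≥30. The GFPSEQ value, a measure of nonsense suppression, is the weighted bin median GFP/RFP relative to the unmutated parent tRNA, using each variant's estimated cell share per bin as the weight. Only variants with ≥100 reads and ≥30 cells were included.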
In the case of C68A C79A, the nonsense suppression is reported as ≤ 0.026.
For C68A C82G, the nonsense suppression was ≤ 0.026.
With C68A G69C A89C the nonsense suppression was ≤ 0.026.
For C68A G69U, the nonsense suppression was ≤ 0.026.
In the case of C68A G73C, the nonsense suppression is reported as ≤ 0.026.
In the case of C68A G73C A74U, the nonsense suppression is reported as ≤ 0.026.
For C68A G85C A89G, the nonsense suppression was ≤ 0.026.
In the case of C68A G88C, the nonsense suppression is reported as ≤ 0.026.
For C68A U70A, the nonsense suppression was ≤ 0.026.
For C68A U71C, the nonsense suppression was ≤ 0.026.
In the case of C68A U71C G86A, the nonsense suppression is reported as ≤ 0.026.
With C68A U76G the nonsense suppression was ≤ 0.026.
For C68G C75U, the nonsense suppression was ≤ 0.026.
In the case of C68G C77U G84C, the nonsense suppression is reported as ≤ 0.026.
In the case of C68G C82A, the nonsense suppression is reported as ≤ 0.026.
For C68G C82G, the nonsense suppression was ≤ 0.026.
For C68G C83G G84A G88A, the nonsense suppression was ≤ 0.026.
With C68G G78A the nonsense suppression was ≤ 0.026.
For C68U C82G, the nonsense suppression was ≤ 0.026.
For C68U G85C, the nonsense suppression was ≤ 0.026.
C68U U70C showed a nonsense suppression of 0.0321.
For C68U U70G, the nonsense suppression was ≤ 0.026.
In the case of C68U U71A, the nonsense suppression is reported as ≤ 0.026.
For G69A A74C C79G, the nonsense suppression was ≤ 0.026.
In the case of G69A A87G, the nonsense suppression is reported as ≤ 0.026.
For G69A C79G, the nonsense suppression was ≤ 0.026.
With G69A C80A the nonsense suppression was ≤ 0.026.
In the case of G69A G73U, the nonsense suppression is reported as ≤ 0.026.
In the case of G69A G84U, the nonsense suppression is reported as ≤ 0.026.
In the case of G69A G85C G86C, the nonsense suppression is reported as ≤ 0.026.
With G69A U71C the nonsense suppression was ≤ 0.026.
For G69A U71C G85U, the nonsense suppression was ≤ 0.026.
With G69A U71G the nonsense suppression was ≤ 0.026.
With G69C A74G the nonsense suppression was ≤ 0.026.
With G69C C75A C80A the nonsense suppression was ≤ 0.026.
For G69C C80G, the nonsense suppression was ≤ 0.026.
For G69C C82G, the nonsense suppression was ≤ 0.026.
For G69C C83A, the nonsense suppression was ≤ 0.026.
For G69C G84C, the nonsense suppression was ≤ 0.026.
In the case of G69C G86U, the nonsense suppression is reported as ≤ 0.026.
With G69C G88U the nonsense suppression was ≤ 0.026.
For G69C U70C, the nonsense suppression was ≤ 0.026.
For G69C U70C C75A, the nonsense suppression was ≤ 0.026.
In the case of G69C U71C C81G, the nonsense suppression is reported as ≤ 0.026.
In the case of G69C U76A, the nonsense suppression is reported as ≤ 0.026.
In the case of G69C U76G G88C, the nonsense suppression is reported as ≤ 0.026.
In the case of G69U A74G, the nonsense suppression is reported as ≤ 0.026.
With G69U A87G the nonsense suppression was ≤ 0.026.
In the case of G69U A87U, the nonsense suppression is reported as ≤ 0.026.
For G69U C75A, the nonsense suppression was ≤ 0.026.
With G69U C79A the nonsense suppression was ≤ 0.026.
In the case of G69U G73A C83A, the nonsense suppression is reported as ≤ 0.026.
In the case of G69U G78U, the nonsense suppression is reported as ≤ 0.026.
In the case of G69U G78U C83A G86U, the nonsense suppression is reported as ≤ 0.026.
In the case of G69U G84U, the nonsense suppression is reported as ≤ 0.026.
For G69U G86U, the nonsense suppression was ≤ 0.026.
In the case of G69U U76C G78C, the nonsense suppression is reported as ≤ 0.026.
In the case of U70A C72A, the nonsense suppression is reported as ≤ 0.026.
In the case of U70A C75A, the nonsense suppression is reported as ≤ 0.026.
For U70A C79G, the nonsense suppression was ≤ 0.026.
For U70A C80G, the nonsense suppression was ≤ 0.026.
For U70A C81A, the nonsense suppression was ≤ 0.026.
For U70A G78C G88U, the nonsense suppression was ≤ 0.026.
In the case of U70A G84A, the nonsense suppression is reported as ≤ 0.026.
In the case of U70A G86A, the nonsense suppression is reported as ≤ 0.026.
In the case of U70A U71A A74C, the nonsense suppression is reported as ≤ 0.026.
In the case of U70C A74C, the nonsense suppression is reported as ≤ 0.026.
In the case of U70C C75A, the nonsense suppression is reported as ≤ 0.026.
For U70C C79G C83G, the nonsense suppression was ≤ 0.026.
For U70C C82A, the nonsense suppression was ≤ 0.026.
For U70C G78U A89U, the nonsense suppression was ≤ 0.026.
For U70C G84A, the nonsense suppression was ≤ 0.026.
For U70C G85A, the nonsense suppression was ≤ 0.026.
For U70C G86A A87U, the nonsense suppression was ≤ 0.026.
For U70C U71A A87G, the nonsense suppression was ≤ 0.026.
For U70C U71G, the nonsense suppression was ≤ 0.026.
With U70C U76G the nonsense suppression was ≤ 0.026.
With U70G A87U the nonsense suppression was ≤ 0.026.
For U70G A89U, the nonsense suppression was ≤ 0.026.
With U70G C72G C80G the nonsense suppression was ≤ 0.026.
With U70G C75G the nonsense suppression was ≤ 0.026.
In the case of U70G C81A, the nonsense suppression is reported as ≤ 0.026.
With U70G C81U A87U the nonsense suppression was ≤ 0.026.
With U70G C82U the nonsense suppression was ≤ 0.026.
For U70G C83U, the nonsense suppression was ≤ 0.026.
In the case of U70G C83U G86C, the nonsense suppression is reported as ≤ 0.026.
For U70G G73U A87G, the nonsense suppression was ≤ 0.026.
In the case of U70G G78A, the nonsense suppression is reported as ≤ 0.026.
For U70G G78C C81A G84A, the nonsense suppression was ≤ 0.026.
For U70G G85U, the nonsense suppression was ≤ 0.026.
In the case of U70G G86C, the nonsense suppression is reported as ≤ 0.026.
For U70G U76C G86A, the nonsense suppression was ≤ 0.026.
With U70G U76G C81A G84A the nonsense suppression was ≤ 0.026.
For U71A A74C C82G G86A, the nonsense suppression was ≤ 0.026.
In the case of U71A C77G G84U, the nonsense suppression is reported as ≤ 0.026.
With U71A C81U the nonsense suppression was ≤ 0.026.
For U71A C82U, the nonsense suppression was ≤ 0.026.
In the case of U71A G73C, the nonsense suppression is reported as ≤ 0.026.
For U71A G73U C79G, the nonsense suppression was ≤ 0.026.
For U71A G78A C79A, the nonsense suppression was ≤ 0.026.
With U71A G78A G85C the nonsense suppression was ≤ 0.026.
With U71A G85U the nonsense suppression was ≤ 0.026.
For U71A G86C, the nonsense suppression was ≤ 0.026.
With U71C A87C the nonsense suppression was ≤ 0.026.
With U71C C72U the nonsense suppression was ≤ 0.026.
With U71C C77A C82G the nonsense suppression was ≤ 0.026.
In the case of U71C C77G G84C, the nonsense suppression is reported as ≤ 0.026.
For U71C C80G, the nonsense suppression was ≤ 0.026.
With U71C C82G G84C the nonsense suppression was ≤ 0.026.
With U71C G73A the nonsense suppression was ≤ 0.026.
For U71C G73C, the nonsense suppression was ≤ 0.026.
For U71C G73C C81A, the nonsense suppression was ≤ 0.026.
In the case of U71C G73U, the nonsense suppression is reported as ≤ 0.026.
For U71C G73U A87C, the nonsense suppression was ≤ 0.026.
In the case of U71C U76C, the nonsense suppression is reported as ≤ 0.026.
With U71G A87G the nonsense suppression was ≤ 0.026.
In the case of U71G A89G, the nonsense suppression is reported as ≤ 0.026.
For U71G A89U, the nonsense suppression was ≤ 0.026.
In the case of U71G C72G, the nonsense suppression is reported as ≤ 0.026.
For U71G C77A C79U A87U, the nonsense suppression was ≤ 0.026.
For U71G C79A, the nonsense suppression was ≤ 0.026.
In the case of U71G C81A, the nonsense suppression is reported as ≤ 0.026.
With U71G C81G the nonsense suppression was ≤ 0.026.
With U71G C83A the nonsense suppression was ≤ 0.026.
For U71G G73C, the nonsense suppression was ≤ 0.026.
In the case of U71G G78C, the nonsense suppression is reported as ≤ 0.026.
For U71G G78U, the nonsense suppression was ≤ 0.026.
In the case of U71G G84C, the nonsense suppression is reported as ≤ 0.026.
With U71G G84U G88A the nonsense suppression was ≤ 0.026.
In the case of U71G G85A, the nonsense suppression is reported as ≤ 0.026.
In the case of U71G G85C, the nonsense suppression is reported as ≤ 0.026.
For U71G U76C, the nonsense suppression was ≤ 0.026.
In the case of C72A C75G, the nonsense suppression is reported as ≤ 0.026.
For C72A C75U, the nonsense suppression was ≤ 0.026.
For C72A C79A, the nonsense suppression was ≤ 0.026.
With C72A C80A the nonsense suppression was ≤ 0.026.
With C72A C81G the nonsense suppression was ≤ 0.026.
For C72A G84A, the nonsense suppression was ≤ 0.026.
In the case of C72A G84U G86A, the nonsense suppression is reported as ≤ 0.026.
With C72G A87C the nonsense suppression was ≤ 0.026.
With C72G C75A G84A the nonsense suppression was ≤ 0.026.
Work on C72G G73A yielded a nonsense suppression of 0.0319.
For C72G G73C C79G, the nonsense suppression was ≤ 0.026.
With C72G G86U the nonsense suppression was ≤ 0.026.
In the case of C72G U76A, the nonsense suppression is reported as ≤ 0.026.
In the case of C72U A74C C77A, the nonsense suppression is reported as ≤ 0.026.
With C72U C79A the nonsense suppression was ≤ 0.026.
For C72U G84C, the nonsense suppression was ≤ 0.026.
For C72U U76A C81G A89G, the nonsense suppression was ≤ 0.026.
With C72U U76A G84U the nonsense suppression was ≤ 0.026.
With C72U U76C the nonsense suppression was ≤ 0.026.
With G73A A74U A89G the nonsense suppression was ≤ 0.026.
For G73A A87U, the nonsense suppression was 0.0409.
In the case of G73A A89U, the nonsense suppression is reported as ≤ 0.026.
In the case of G73A C77A, the nonsense suppression is reported as ≤ 0.026.
Variant G73A C79U has a nonsense suppression of 0.207.
With G73A C79U C81G the nonsense suppression was ≤ 0.026.
Variant G73A G88A has a nonsense suppression of 0.0281.
In the case of G73A G88U, the nonsense suppression is reported as 0.0757.
In the case of G73A U76C A89C, the nonsense suppression is reported as ≤ 0.026.
In the case of G73C A74U, the nonsense suppression is reported as ≤ 0.026.
In the case of G73C C75A, the nonsense suppression is reported as ≤ 0.026.
In the case of G73C C77A, the nonsense suppression is reported as ≤ 0.026.
For G73C C79U, the nonsense suppression was ≤ 0.026.
For G73C C83A, the nonsense suppression was ≤ 0.026.
In the case of G73C G78U, the nonsense suppression is reported as ≤ 0.026.
With G73C G84A A87C the nonsense suppression was ≤ 0.026.
